Results reported in PubChem BioAssay AID1487 (National Center for Advancing Translational Sciences (NCATS), 2009).
Screen size: about 200,000 compounds; about 25 (0.01%) were called active. Inconclusive results (about 23%) are left out. Calls follow the shape of the dose curve; as a rule, active = well fitted inhibition curve with a large enough effect in the signal ratio, with a control signal flat (not every such curve was filed as active); inconclusive = small, poorly fitted or top-dose-only effect, or effect the other way, or a change in a side signal; inactive = flat fitted curve, though single readings scatter; the % refers to the signal ratio. Only a part is listed here, and it is no random draw.
% is scaled to controls: 0 for no effect and ±100 for the full control effect.

Assay: qHTS Assay for Modulators of Lamin A Splicing
Conditions: HeLa LMNA splicing GFP/RFP minigene ratio, 48 h; series mostly up to 46.1 µM; ratio change, negative = inhibition: at the top concentration
Text: NCGC Assay Overview: Hutchinson-Gilford Progeria Syndrome (HGPS) is a pediatric premature aging disease caused by a spontaneous mutation in the lamin A/C (LMNA) gene. The mutation activates a cryptic splice site in the LMNA pre-mRNA which results in production of a pre-lamin A protein that cannot be processed properly. The mutant protein accumulates in the nucleus and negatively affects numerous cellular functions. Correction of the splicing defect in HGPS patient cells using a targeted oligonucleotide (exo11) leads to reversal of the cellular disease phenotypes. To identify small molecule modulators of aberrant LMNA splicing, a homogenous assay was constructed in HeLa cells that used a GFP containing minigene to report on correction of aberrant splicing in lamin A and a RFP (DsRed2) to report on cell viability, uniformity and nonspecific effects on the assay signal. This assay was adapted to laser-scanning microplate cytometry (Acumen, TTP Labtech) where miniaturization of the assay to a 1,536-well plate format was possible. References: Bowen, W. P.; Wylie, P. G. Application of Laser-Scanning Fluorescence Microplate Cytometry in High Content Screening. Assay Drug Dev Technol 2006;4:209-221. Scaffidi P, Misteli T. Reversal of the cellular phenotype in the premature aging disease Hutchinson-Gilford progeria syndrome. Nat.
NCGC Assay Protocol Summary: Reagents/Controls: Stable clones expressing DsRed2 and lamin A-EGFP were generated by Cell and Molecular Technologies in S3 HeLa cells. HeLa cells were prepared for the assay when they were 70-90% confluent. The cells were counted and resuspended in Opti-MEM I (no phenol red; Gibco), 2% FBS, 1% penicillin/ streptomycin (Gibco) at concentration of 120 cells/uL concentration. The suspension was passed through a Falcon basket filter with pore size 40um (Beckton Dickson). Control titrations: column […] 1536-well plate contained a sixteen point titration (1:2 dilutions) in duplicate of ancitabine (Sigma: A8598) beginning at 40 uM final concentration. Column 2 contained a sixteen point titration (1:2 dilutions) of cycloheximide beginning at 1.4 mM final concentration. Column 3 contained ancitabine at 40 uM and column 4 contained was the vehicle control (0.5% DMSO final concentration). Assay Steps: 5 uL of HeLa cells were plated in Aurora LoBase black clear bottom (cyclic-olefin polymer) 1536-well plates at a final density of 600 cells/well. Controls and library compounds were added with a 1536-well pin array using the Kalypsys pin-tool. The plates were then incubated for 48 hrs in a cell-culture incubator (37 °C; 5% CO2, 98% humidity). Following incubation the plates were read on the Acumen Explorer using the 488 nm laser. Data was collected on objects between 10 and 100 um in size. Cell objects were defined by a 15 um width x 10 um depth filter. The ratio of the total object intensity in PMT1 (500-530 nm emission; GFP) over PMT3 (575-640 nm emission; RFP) was calculated for analysis. Keywords: NIH Roadmap, MLSCN, MLI, MLSMR, qHTS, NCGC, lamin A, Progeria, RNA splicing.
For CCCN1CCO[C@@H]2c3cc(O)ccc3OC[C@H]21, the “ratio change, negative = inhibition” value was inactive: -10.6%. In the case of Brc1c(NC2=NCCN2)ccc2nccnc12, the “ratio change, negative = inhibition” value was inactive: -4.93%. For CN1C(=O)CCS(=O)(=O)C1c1ccc(Cl)cc1 (configuration not stated), the “ratio change, negative = inhibition” value was inactive: -5.04%. In the case of CN1[C@@H](CC(=O)c2ccccc2)CCC[C@H]1C[C@H](O)c1ccccc1, the Potency was “inactive”. For COc1ccccc1N1CCNCC1, the “ratio change, negative = inhibition” value was inactive: -13%. With Oc1ccc(Cl)cc1Cc1cc(Cl)ccc1O the “ratio change, negative = inhibition” value was inactive: -14.5%. For CCCC[N+]1(C)C2CC(OC(=O)C(CO)c3ccccc3)CC1C1OC12 (configuration not stated), the “ratio change, negative = inhibition” value was inactive: -16%. For Oc1ccc2c3c1O[C@H]1[C@@H](O)CC[C@@]4(O)C(C2)N(CC2CCC2)CCC314 (some centres not stated), the “ratio change, negative = inhibition” value was inactive: -21.9%. With CCCC(C)(COC(N)=O)COC(=O)NC(C)C (configuration not stated) the “ratio change, negative = inhibition” value was inactive: -7.37%. With COc1cc2c(cc1O)CC1c3c(cc(O)c(OC)c3-2)CCN1C (configuration not stated) the “ratio change, negative = inhibition” value was inactive: 5.36%. For NN=C(N)N, the “ratio change, negative = inhibition” value was inactive: -13.4%. With Clc1ccc(C(c2ccc(Cl)cc2)C(Cl)(Cl)Cl)cc1 the “ratio change, negative = inhibition” value was inactive: -7.48%. For OC(c1ccccc1)(c1ccccc1)C1CCNCC1, the “ratio change, negative = inhibition” value was inactive: -4.5%. With CN(C)CCC=C1c2ccccc2CCc2ccccc21 the “ratio change, negative = inhibition” value was inactive: -23.8%. In the case of C[C@]12CC[C@H]3C(=CCc4cc(O)ccc43)[C@@H]1CCC2=O, the “ratio change, negative = inhibition” value was inactive: 6.94%. With COC(=O)[C@H]1C[C@@H]1[C@H](NP(=O)(c1ccccc1)c1ccccc1)c1ccccc1 the “ratio change, negative = inhibition” value was inactive: -4.55%. In the case of Oc1ccc(C2NCc3ccccc3-n3cccc32)cc1Cl (configuration not stated), the “ratio change, negative = inhibition” value was inactive: -29% [at 46 µM]. For CC(C)[C@@]1(NC(=O)[C@@H]2C[C@H]3c4cccc5[nH]cc(c45)C[C@@H]3N(C)C2)O[C@]2(O)[C@H]3CCCN3C(=O)[C@H](Cc3ccccc3)N2C1=O, the “ratio change, negative = inhibition” value was inactive: -16.2%. For CCC(CO)NC(=O)[C@@H]1C=C2c3cccc4[nH]cc(c34)C[C@H]2N(C)C1 (some centres not stated), the “ratio change, negative = inhibition” value was inactive: -17.7%. For CC[C@H](CO)NC(=O)[C@H]1C=C2c3cccc4[nH]cc(c34)C[C@@H]2N(C)C1, the “ratio change, negative = inhibition” value was inactive: -17.4%. With CC(=O)Nc1cc([As](=O)(O)O)ccc1O the “ratio change, negative = inhibition” value was inactive: 13.6%. In the case of CN(C)C(=O)Oc1ccc[n+](C)c1, the “ratio change, negative = inhibition” value was inactive: -2.94%. For c1ccc(CNc2ncnc3nc[nH]c23)cc1, the “ratio change, negative = inhibition” value was inactive: 9.82%. With CN[C@H](C)[C@H](O)c1ccccc1 the “ratio change, negative = inhibition” value was inactive: -6.44% [at 46 µM]. With C[C@@H](COc1ccccc1)N(CCCl)Cc1ccccc1 the “ratio change, negative = inhibition” value was inactive: -7.31%. For C[C@H]1O[C@H]1P(=O)(O)O, the “ratio change, negative = inhibition” value was inactive: -0.636%. For CC(C)C(=O)Nc1ccc([N+](=O)[O-])c(C(F)(F)F)c1, the “ratio change, negative = inhibition” value was inactive: -4.77%. For CNC(=O)Oc1ccc2c(c1)[C@]1(C)CCN(C)[C@@H]1N2C, the Potency was “inactive”. For CN(C)C(=O)Oc1cccc([N+](C)(C)C)c1, the “ratio change, negative = inhibition” value was inactive: -2.3%. With O=c1[nH]cnc2[nH]ncc12 the “ratio change, negative = inhibition” value was inactive: -12.9%. For CP(=O)(O)CCCN, the “ratio change, negative = inhibition” value was inactive: 7.09%. With CN1C2CC(OC(=O)C(CO)c3ccccc3)CC1C1OC12 (configuration not stated) the “ratio change, negative = inhibition” value was inactive: -14.1%. With CC[N+](CC)(CC)CCOc1cccc(OCC[N+](CC)(CC)CC)c1OCC[N+](CC)(CC)CC the “ratio change, negative = inhibition” value was inactive: 4.1%. For O=C(O)c1ccccc1Nc1cccc(C(F)(F)F)c1, the “ratio change, negative = inhibition” value was inactive: -13.7%. In the case of c1ccc2c(c1)Nc1ccccc1S2, the “ratio change, negative = inhibition” value was inactive: 0.25%. For COP(=O)(OC)C(O)C(Cl)(Cl)Cl (configuration not stated), the “ratio change, negative = inhibition” value was inactive: 5.07%. In the case of C[C@]12N[C@@H](Cc3ccccc31)c1ccccc12, the Potency was “inactive”. For CC(C)C[C@H]1C(=O)N2CCCC2[C@]2(O)O[C@](NC(=O)[C@@H]3C=C4c5cccc6[nH]cc(c56)CC4N(C)C3)(C(C)C)C(=O)N12 (some centres not stated), the “ratio change, negative = inhibition” value was inactive: 3.22%. For Cc1cc(C(C)(C)C)cc(C)c1CC1=NCCN1, the “ratio change, negative = inhibition” value was inactive: -3.92%. For C[C@]12CC[C@H](O)C[C@@H]1CC[C@H]1[C@H]2CC[C@]2(C)C(=O)CC[C@@H]12, the Potency was “inactive”. In the case of CC(C)C[C@H]1C(=O)N2CCC[C@@H]2[C@]2(O)O[C@](NC(=O)[C@H]3C=C4c5cccc6[nH]c(Br)c(c56)C[C@H]4N(C)C3)(C(C)C)C(=O)N12, the “ratio change, negative = inhibition” value was inactive: -14.6%. With C=CCN1CC[C@]23c4c5ccc(O)c4O[C@@H]2C(=O)CC[C@]3(O)[C@H]1C5 the “ratio change, negative = inhibition” value was inactive: -11.4%. In the case of NCC(CC(=O)O)c1ccc(Cl)cc1 (configuration not stated), the Potency was “inactive”. In the case of COc1ccc2c(c1OC)C(=O)O[C@H]2[C@H]1c2cc3c(cc2CCN1C)OCO3, the “ratio change, negative = inhibition” value was inactive: -2.73%. In the case of CCC1(C2=NCCN2)Cc2ccccc2O1 (configuration not stated), the “ratio change, negative = inhibition” value was inactive: -2.04%. With COc1ccc2c3c1O[C@H]1C[C@@H](O)C=C[C@@]31CCN(C)C2 the “ratio change, negative = inhibition” value was inactive: -5.51% [at 46 µM]. In the case of O=C(CCCN1CCC2(CC1)C(=O)NCN2c1ccccc1)c1ccc(F)cc1, the “ratio change, negative = inhibition” value was inactive: 21.6%. For COc1cc2ccc(=O)oc2c2ccoc12, the “ratio change, negative = inhibition” value was inactive: -7.01%. For NCC1(CC(=O)O)CCCCC1, the Potency was “inactive”. For COc1ccc2c(c1OC)C(=O)OC2C1c2cc3c(cc2CCN1C)OCO3 (configuration not stated), the “ratio change, negative = inhibition” value was inactive: -21.9%. For CC(C)c1cccc(C(C)C)c1O, the Potency was “inactive”. For CN1[C@H]2CC(OC(=O)[C@@H](CO)c3ccccc3)C[C@H]1[C@H]1O[C@H]12 (some centres not stated), the “ratio change, negative = inhibition” value was inactive: -11.8%.
